These results are taken from the supplement of paper PMC9446081.

The campaign covered roughly 39,000 compounds. About 220 (0.56%) showed activity. Some of the results follow.
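Also: static incubation at 37 °C against the wild-type strain, values averaged over two biological replicates.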

This experiment relates to Escherichia coli K-12 BW25113. Briefly: relative growth (OD600 normalised to plate interquartile mean) (fraction); higher = less growth inhibition, active = 0.2 or less. Conditions: 50 µM; LB; incubation time: overnight (16-24 h).
Turning to `CCn1cc(C(=O)O)c(=O)c2ccc(C)nc21`, the relative growth is inactive: 1.02.

As to `CC(C)CC#Cc1ccc2c(c1)O[C@H](CN(C)C(=O)Cc1ccccn1)[C@H](C)CN([C@@H](C)CO)S2(=O)=O`, the relative growth was inactive: 1.03. The same measure for `O=C(NCC[C@@H]1CC[C@@H](NS(=O)(=O)c2cccc(F)c2)[C@@H](CO)O1)C1CC1`: inactive: 1.02. Then `C[C@@H]1CCCCO[C@@H](CN(C)C(=O)Nc2ccc(F)cc2)[C@@H](C)CN([C@H](C)CO)C(=O)c2cc(NC(=O)Nc3ccccc3)ccc2O1`, with inactive: 0.99; and `C[C@@H]1CCCCO[C@@H](CN(C)S(=O)(=O)c2ccc(F)cc2)[C@@H](C)CN([C@H](C)CO)C(=O)c2cc(NC(=O)CCCCCC(=O)Nc3ccccc3N)ccc2O1`, with inactive: 1.03; and `C[C@@H](O)C#Cc1ccc2c(c1)O[C@H](CN(C)C(=O)CN(C)C)[C@@H](C)CN([C@@H](C)CO)S2(=O)=O`, with inactive: 0.985. Regarding `COc1ccccc1CNC(=O)C[C@H]1C[C@H]2c3cc(NC(=O)NC4CCCC4)ccc3O[C@H]2[C@H](CO)O1`, the relative growth was inactive: 1.03.

In the case of `COC1CC(OC2C(C)OC(OC3C(C)=CCC4CC(CC5(C=CC(C)C(C6CCCCC6)O5)O4)OC(=O)C4C=C(C)C(O)C5OCC(=CC=CC3C)C45O)CC2OC)OC(C)C1O` (stereo unspecified), the relative growth is inactive: 0.906. With `COc1ccc(CN(C)C[C@H]2OCCCC[C@@H](C)Oc3ccc(NC(=O)c4ccccc4)cc3C(=O)N([C@H](C)CO)C[C@H]2C)cc1`, the relative growth was inactive: 1.01.

For `Cc1noc(C)c1NC(=O)N(C)C[C@@H]1OCCCC[C@H](C)Oc2ccc(NC(=O)c3ccccc3)cc2C(=O)N([C@@H](C)CO)C[C@H]1C`, the relative growth was inactive: 0.964.

With `C[C@H]1CN([C@@H](C)CO)C(=O)c2cccc(NS(=O)(=O)c3ccccc3)c2O[C@@H]1CN(C)C(=O)Nc1cccc2ccccc12`, the relative growth was inactive: 0.99.

For the compound `Cc1ccc(S(=O)(=O)N(C)C[C@H]2Oc3ccc(NC(=O)Nc4ccc(C(F)(F)F)cc4)cc3CC(=O)N([C@H](C)CO)C[C@H]2C)cc1`, the relative growth was inactive: 1.03. Regarding `Cc1noc(C)c1S(=O)(=O)N(C)C[C@H]1Oc2ccc(NC(=O)Nc3ccccc3)cc2CC(=O)N([C@@H](C)CO)C[C@H]1C`, the relative growth was inactive: 1.04. Then `C[C@@H]1CCCCO[C@H](CN(C)C(=O)CCCN(C)C)[C@H](C)CN([C@@H](C)CO)C(=O)c2cc(NC(=O)Nc3cccc4ccccc34)ccc2O1`, with inactive: 0.977; and `COc1cccc(-c2ccc3c(c2)O[C@@H](CN(C)Cc2cncnc2)[C@H](C)CN([C@@H](C)CO)S3(=O)=O)c1`, with inactive: 1.02. As to `Cc1ccc(S(=O)(=O)Nc2ccc3c(c2)C(=O)N([C@@H](C)CO)C[C@H](C)[C@@H](CN(C)C(=O)C2CCCCC2)OCCCC[C@@H](C)O3)cc1`, the relative growth is inactive: 0.993.

`C[C@@H]1CN([C@H](C)CO)S(=O)(=O)c2ccc(C#CCN(C)C)cc2O[C@H]1CN(C)Cc1cccnc1`: the relative growth is inactive: 1.01. For `C[C@@H]1CN([C@H](C)CO)C(=O)c2cc(NC(=O)c3ccncc3)ccc2O[C@@H](C)CCCCO[C@@H]1CN(C)CC1CCCCC1`, the relative growth was inactive: 0.978.

For the compound `Cc1noc(C)c1NC(=O)Nc1ccc2c(c1)C(=O)N([C@@H](C)CO)C[C@H](C)[C@@H](CN(C)Cc1ccc(C(F)(F)F)cc1)OCCCC[C@H](C)O2`, the relative growth was inactive: 1.01. Take `COc1ccc2c3c([nH]c2c1)[C@@H](CO)N(C[C@]13CCN(CC1)S(=O)(=O)C)C(=O)Nc1ccc(cc1)F`: the relative growth was inactive: 1.02. Then `C[C@@H]1CN([C@H](C)CO)C(=O)c2cc(NC(=O)Nc3cccc4ccccc34)ccc2O[C@@H](C)CCCCO[C@H]1CN(C)C(=O)c1ccccc1`, with inactive: 1.04; and `O=C(C[C@@H]1C[C@@H]2c3cc(NS(=O)(=O)c4ccc(F)cc4)ccc3O[C@@H]2[C@@H](CO)O1)NCc1cccc(F)c1`, with inactive: 1; and `C[C@H]1CN([C@@H](C)CO)C(=O)c2cccc(NC(=O)c3cnccn3)c2O[C@@H]1CN(C)Cc1ccccc1`, with inactive: 0.994.

For `C[C@@H]1CCCCO[C@@H](CN(C)C(=O)Nc2ccc(C(F)(F)F)cc2)[C@@H](C)CN([C@@H](C)CO)C(=O)c2cc(NC(=O)C3CCCCC3)ccc2O1`, the relative growth is inactive: 1.02. On to `O=C(O)c1cc(O)c2c(c1)C(C1c3cc(C(=O)O)cc(O)c3C(=O)c3c(OC4OC(CO)C(O)C(O)C4O)cccc31)c1cccc(OC3OC(CO)C(O)C(O)C3O)c1C2=O` (stereo unspecified), for which the relative growth was inactive: 1.01. For the compound `COc1ccc2cc(CCC(C)=O)ccc2c1`, the relative growth was inactive: 1.18. `C[C@H]1CN([C@@H](C)CO)C(=O)CCCn2cc(nn2)CO[C@@H]1CN(C)S(=O)(=O)c1ccc(Oc2ccccc2)nc1`: the relative growth was inactive: 0.944. As to `C[C@@H]1CCCCO[C@H](CN(C)C)[C@H](C)CN([C@H](C)CO)C(=O)c2cc(NC(=O)Nc3ccc(C(F)(F)F)cc3)ccc2O1`, the relative growth was inactive: 0.908. `COc1ccc(CN(C)C[C@@H]2Oc3ccc(NC(=O)C4CC4)cc3CC(=O)N([C@H](C)CO)C[C@H]2C)cc1`: the relative growth is inactive: 0.952.

As to `Cc1ccc(S(=O)(=O)N(C)C[C@H]2OCCCC[C@H](C)Oc3ccc(NC(=O)CCCCCC(=O)Nc4ccccc4N)cc3C(=O)N([C@@H](C)CO)C[C@@H]2C)cc1`, the relative growth was inactive: 1.01.

As for `C[C@@H]1CN([C@H](C)CO)C(=O)c2cccc(NS(=O)(=O)c3cccs3)c2O[C@H]1CN(C)S(=O)(=O)c1cn(C)cn1`, the relative growth is inactive: 1. Then `COCCOC(=O)N1C(=O)[C@@]2(c3cc(C#CC4(O)CCCCCC4)ccc31)[C@H](C(=O)N1CCN(c3ncccn3)CC1)[C@H]1C(=O)O[C@H](c3ccccc3)[C@H](c3ccccc3)N1[C@@H]2c1ccccc1OCCO`, with inactive: 1.04; and `O=C(O)CCCCc1ccc(F)cc1`, with inactive: 1.01.

As for `C[C@@H]1CN([C@@H](C)CO)C(=O)Cc2cc(NS(=O)(=O)c3cccs3)ccc2O[C@H]1CN(C)CC1CC1`, the relative growth is inactive: 1.01.

On to `COc1cc(Nc2ncc3c(n2)-c2ccc(Cl)cc2C(c2c(F)cccc2OC)=NC3)ccc1C(=O)O`, for which the relative growth is inactive: 1.01. On to `COc1ccc(NC(=O)Nc2ccc3c(c2)[C@H]2C[C@H](CC(=O)NCc4ccccn4)O[C@@H](CO)[C@H]2O3)cc1`, for which the relative growth was inactive: 0.989.
